Reference: article PMC4336329 (PLoS ONE, 2015)
Out of some 310,000 compounds screened, about 2,200 (0.71%) showed an effect of 50% or more. Effects have a minus sign here. This is one part of the list.

What follows are molecules tested against human ether-à-go-go-related gene (hERG) potassium channel (human, UniProt Q12809) (assay: primary screen, population patch clamp on CHO cells stably expressing hERG).
Chain of human ether-à-go-go-related gene (hERG) potassium channel (Q12809 whole entry, looked up): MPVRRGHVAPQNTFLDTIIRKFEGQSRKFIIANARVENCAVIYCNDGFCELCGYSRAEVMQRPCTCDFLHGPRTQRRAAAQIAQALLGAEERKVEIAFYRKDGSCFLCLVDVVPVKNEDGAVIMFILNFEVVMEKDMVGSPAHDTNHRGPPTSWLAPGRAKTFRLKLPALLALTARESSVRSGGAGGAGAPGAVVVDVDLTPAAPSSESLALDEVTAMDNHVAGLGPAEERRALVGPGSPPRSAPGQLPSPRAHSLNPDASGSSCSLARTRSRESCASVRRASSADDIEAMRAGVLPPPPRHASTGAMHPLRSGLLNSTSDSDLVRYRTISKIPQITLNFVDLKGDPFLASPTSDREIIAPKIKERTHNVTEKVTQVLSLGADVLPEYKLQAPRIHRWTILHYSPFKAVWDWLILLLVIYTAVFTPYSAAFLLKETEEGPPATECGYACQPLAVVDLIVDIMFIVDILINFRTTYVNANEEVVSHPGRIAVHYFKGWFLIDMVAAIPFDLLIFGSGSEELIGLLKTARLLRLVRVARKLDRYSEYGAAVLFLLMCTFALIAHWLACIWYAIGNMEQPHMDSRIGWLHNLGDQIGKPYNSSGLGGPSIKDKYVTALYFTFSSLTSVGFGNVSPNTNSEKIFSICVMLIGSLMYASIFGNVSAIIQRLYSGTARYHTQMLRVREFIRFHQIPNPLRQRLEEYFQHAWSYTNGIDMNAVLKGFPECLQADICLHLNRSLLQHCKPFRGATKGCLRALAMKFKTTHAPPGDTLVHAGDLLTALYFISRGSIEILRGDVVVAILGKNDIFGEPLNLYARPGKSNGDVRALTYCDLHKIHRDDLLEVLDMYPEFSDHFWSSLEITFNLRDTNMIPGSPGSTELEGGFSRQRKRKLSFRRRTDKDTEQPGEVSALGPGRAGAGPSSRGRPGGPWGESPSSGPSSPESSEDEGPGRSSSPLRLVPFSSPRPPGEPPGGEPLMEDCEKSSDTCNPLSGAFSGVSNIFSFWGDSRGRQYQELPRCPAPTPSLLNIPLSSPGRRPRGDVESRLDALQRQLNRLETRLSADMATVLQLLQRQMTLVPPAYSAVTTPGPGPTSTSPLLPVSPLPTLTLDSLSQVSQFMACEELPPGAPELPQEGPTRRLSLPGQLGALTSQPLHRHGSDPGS

Structure (SMILES) | hERG current change (%, negative = inhibition) at 1uM [%]
N#CCC(=O)N/N=C/c1ccc(SCC(=O)Nc2ccccc2)o1 | 15.1
Nc1ccccc1C#Cc1ccc([N+](=O)[O-])cc1 | 10.5
CCCNC(=O)C(Cc1ccccc1F)NC(=O)c1ccccn1 (centres unmarked) | 18.2
Cc1ccsc1C(=O)Nc1ccccc1N1CCOCC1 | -1.92
Cc1cccc(NC(=O)C2CCCN2C(=O)OCc2ccccc2)c1 (centres unmarked) | 11.5
COc1ccc(-n2nc(C(=O)NCC(=O)NCCCN3CC(C)CC(C)C3)c3ccccc3c2=O)cc1Cl (centres unmarked) | -44.5
CCN(CC)C(=O)C(C(=O)c1cccc([N+](=O)[O-])c1)n1cc(Cl)ccc1=O (centres unmarked) | 12.4
S=C(NCCc1ccccc1)Nc1ccc(Cl)cc1Cl | 9.49
CCCn1c(=O)c(C(=O)N/N=C/c2ccc(F)cc2)c(O)c2ccccc21 | 8.96
COC/C=C/C1=CC2=CC(=O)C(C)(OC(=O)c3cnc4ccccc4n3)C(=O)C2=CN1C1CC1 (centres unmarked) | 9.57
Cc1ccc(CC(=O)NNC(=O)c2ccncc2)cc1C | 10.6
O=C(O)CCCCCN1C(=O)/C(=C\c2ccc(-c3ccc(Cl)cc3)o2)SC1=S | 15.6
O=C(O)c1cc[c]([Hg][Cl])cc1 | -0.162
Cc1ccc(-n2ncc3c(N4CCCC4)ncnc32)c(C)c1 | 0.641
COC(=O)C1=C(c2cccc(C#N)c2)C[C@@H]2CC[C@H]1N2C(=O)N1CCc2cc(OC)c(OC)cc2C1 | 17.1
COc1ccc(OC)c(C2c3[nH]c4ccccc4c3C[C@H]3C(=O)N(C4CC4)CC(=O)N23)c1 (some centres unmarked) | 4.18
COc1cc(OC)cc(C(=O)N[C@H](C(=O)Nc2cccc(S(=O)(=O)N3CCCC3)c2)C(C)C)c1 | 12.3
CSc1ccccc1NC(=O)c1cc(-c2cccnc2)nc2ccc(Br)cc12 | 19
COc1ccc(S(=O)(=O)CC(=O)c2cc(C)c(O)c(C)c2)cc1 | 12
COc1cc(C=Nc2ccccc2C(=O)Nc2ccccc2)cc(OC)c1OC | 12.4
CCCN(CCC)c1nc2ccccc2nc1C(C#N)C(=O)OC(C)COC (centres unmarked) | 2.92
COC(=O)c1cc(Br)ccc1NC(=O)CSCc1c(C)noc1C | 8.44

Structure (SMILES) | hERG current change (%, negative = inhibition) at 1uM [%]
COC(=O)Nc1nnc(-c2ccncc2)s1 | 10.6
CCOC(=O)C1CCN(C(=O)CSc2nnc(-c3ccco3)n2-c2ccccc2)CC1 | -2.31
Cc1onc(-c2ccccc2Cl)c1C(=O)NCc1nnnn1-c1ccc(F)cc1 | 3.87
S=C(NCc1ccc(Cl)cc1)NN1CCOCC1 | 16.8
Cc1cc(C)c(NC(=O)c2ccoc2C)c(C)c1 | 7.46
O=[N+]([O-])c1ccc(CSc2ncnc3c2ncn3[C@@H]2O[C@H](CO)[C@@H](O)[C@H]2O)cc1 | 17.4
O=C(COc1ccc(Cl)cc1)c1ccc(O)cc1O | 8.53
O=C(CNC(=O)/C(=C\c1ccccc1)NC(=O)c1ccc(Br)cc1)OCc1ccccc1 | -68.1
COC(=O)CC1C(=O)NC2CCCCC2N1C(=O)c1ccccc1 (centres unmarked) | 5.77
CC(C)(C)c1ccccc1NC(=O)C1=COCCO1 | -8.88
COc1ccc(CNC(=O)CN(c2cc(C)cc(C)c2)S(=O)(=O)c2c(C)noc2C)cc1 | 3.27
COc1ccc(CCNC(=O)c2ccn[nH]2)cc1OC | 2.84
Cc1ccc2nc(Nc3ccc(C)c(C)c3)c3nncn3c2c1 | 11.7
O=C(O)CNC(=S)N(Cc1ccccc1Cl)C1CCCC1 | 7.28
COC(=O)c1ccc(NC(=O)CSc2nnc(C(C)NC(=O)c3ccccc3Cl)n2C)cc1 (centres unmarked) | 20.5
Cc1c(C)c2cc(Cl)c(O)c(CN3CCN(C)CC3)c2oc1=O | 11
Cc1cc(C)n(-c2ccc(C(=O)N3CCN(S(=O)(=O)c4ccc(Cl)cc4)CC3)cc2)n1 | 13
CCCCc1nc2sc3c(SCCN(C)C)ncnc3c2c2c1CCC2 | 13.9
O=C(Nc1ccc2c(c1)OCO2)C1CCN(S(=O)(=O)c2cccs2)CC1 | -3.53
O=S(=O)(c1ccc(F)cc1)N1CCc2ccccc2C1 | 6.14
Cc1ccc(NC(=O)CNCc2ccccn2)cc1S(=O)(=O)N(C)C | 10.3
CCCCOc1ccc(C(C)NC(=O)C2CCCN(S(=O)(=O)CCC)C2)cc1 (centres unmarked) | 5.85

Structure (SMILES) | hERG current change (%, negative = inhibition) at 1uM [%]
Cc1cnc(CN2CCc3c([nH]c4ccccc34)C2CC(C)C)[nH]1 (centres unmarked) | -5.73
Cc1ccc(NC(=O)COC(=O)CN2CCCCCC2=O)c(C)c1 | -6.62
COC(=O)C1=COC(C)C2CN3CCC4(C(=O)Nc5ccccc54)C3CC12 (centres unmarked) | 3.46
Cc1ccccc1-c1nsc(SCC(=O)Nc2ccc3c(c2)OCO3)n1 | 16.1
Cc1cc(=O)oc(C)c1C(=O)NCc1cccnc1 | 13.3
COc1ccc(CCNC(=O)COC(=O)C23CC4CC(CC(Br)(C4)C2)C3)cc1 | 24.6
CC(C)c1nc2oc3c(=O)[nH]cnc3c2c2c1COC(C)(C)C2 | -0.741
O=C(N=Nc1c(O)[nH]c2ccccc12)c1cc(NS(=O)(=O)c2cccs2)cc(NS(=O)(=O)c2cccs2)c1 | 11.3
C=CCn1cnc2c(c1=O)c1nc3ccccc3nc1n2/N=C/c1cc(OC)c(OC)c(OC)c1 | 16.7
C(=N\n1cnnc1)/c1ccc2c(c1)OCO2 | 7.48
O=C(NC1CCCCC1)c1ccc2c(c1)OCO2 | 17.2
COc1cc(/C=C\C(=O)Nc2cc(=O)n(C)c(=O)n2C)cc(OC)c1OC | 5.6
Cc1ccccc1CCNC(=O)CCn1ccc2cc(S(=O)(=O)N3CCCC3)ccc21 | 11.1
O=C1CCCN1CC1CCN(Cc2nc(CC3CC3)no2)CC1 | 8.49
Nc1ccccc1SC1CC(=O)N(c2ccc(Cl)c(Cl)c2)C1=O (centres unmarked) | 14.6
CCOc1ccc(C2N(c3ccc(F)cc3)C(=O)C3CCCN32)cc1 (centres unmarked) | 8.19
O=C(c1ccc(Cl)cc1)N1CCn2c1nc1ccccc12 | 7.27
Cc1cccc(C(=O)N[C@@H]2c3ccccc3C[C@@H]2O)n1 | 10.3
COc1ccc(/C=N/S(=O)(=O)CCc2ccccc2)c(OC)c1 | 4.56
Cc1cc(=O)oc2c(C)c(OC(C)C(=O)NCCCN3CCCC3=O)ccc12 (centres unmarked) | 17.5
Cc1ccc(NC(=O)C2CCN(S(=O)(=O)c3ccc4c(c3)OCCCO4)CC2)nc1 | 0.3
Cc1ccccc1OCC(O)CN(Cc1ccccc1O)C1CCCCC1 (centres unmarked) | 8.99

Structure (SMILES) | hERG current change (%, negative = inhibition) at 1uM [%]
O=c1[nH]c(=S)n(C2CC2)c(O)c1C=Nc1ccc2c(c1)OCO2 | 7.94
CCCCCC(=O)O/N=C(\C)c1ccn(S(=O)(=O)c2ccccc2)c1 | 9.02
COc1cc(NC(=O)CCN2CCN(Cc3ccccc3)CC2)cc(OC)c1 | 9.21
CC1Cc2cc(/C(O)=C3/C(=O)C(=O)N(CCCn4ccnc4)C3c3ccco3)ccc2O1 (centres unmarked) | 7.33
COc1ccc(OCC(=O)Nc2ccc(S(=O)(=O)N3CCCC3)cc2)cc1 | 4.6
O=C(Cn1c(=O)oc2cc(S(=O)(=O)N3CCCC3)ccc21)Nc1cccc(C(F)(F)F)c1 | 9.23
O=C1c2ccccc2C(Nc2ccc(S(=O)(=O)N3CCOCC3)cc2)N1Cc1ccco1 (centres unmarked) | -3.38
Cc1ccc(S(=O)(=O)N2CCN(CC(=O)N/N=C\C(Cl)=C\c3ccccc3)CC2)cc1 | 6.08
Brc1ccccc1-c1nnc(SCc2nc3ccccc3s2)o1 | 14.3
Cc1ccc(CN2CCc3c(OCc4ccc(F)cc4)cccc3C2=O)cc1 | 13.7
COc1ccc(-c2cc(C(=O)Nc3c(C)nn(Cc4ccccc4Cl)c3C)no2)cc1OC | 5.12
Cc1nc2nc[nH]n2c(=O)c1CCOC(=O)c1ccccc1F | 9.17
CCN(CC)S(=O)(=O)c1ccc(N2CCOCC2)c(NC(=O)Cc2cccc3ccccc23)c1 | 12.9
CC(C)C[C@H]1CN=C(Nc2ccccc2)N1CC1CCCCC1 | -9.04
CCN(C(=O)COC(=O)c1ccc(OC)c(S(=O)(=O)N2CCCc3ccccc32)c1)C1CCS(=O)(=O)C1 (centres unmarked) | 15.6
CC1CC(C)CN(C(=O)C(C)N2CCN(S(=O)(=O)c3cccs3)CC2)C1 (centres unmarked) | 7.33
CN(C)CCN=Cc1c(O)n(-c2cccc(C(F)(F)F)c2)c(=O)[nH]c1=O | 12
O=C(CSc1nnc(-c2ccc(OC(F)F)cc2)o1)NC(=O)NCc1ccco1 | -7.02
NC1=NC(c2cccnc2)n2c(nc3ccccc32)N1 (centres unmarked) | 11.3
O=C1OC(Nc2nc(-c3ccc(F)cc3)cs2)c2ccccc21 (centres unmarked) | 23.7
